Results: the supplement of paper PMC12217912
The list shows a part of the results. Sequences were assembled here from the parent chain. Inactive controls read about 0.05.

B1: TEV protease; numbered along this chain (parent)
chain: MGESLFKGPRDYNPISSSICHLTNESDGHTTSLYGIGFGPFIITNKHLFRRNNGTLVVQSLHGVFKVKDTTTLQQHLVDGRDMIIIRMPKDFPPFPQKLKFREPQREERICLVTTNFQTKSMSSMVSDTSCTFPSGDGIFWKHWIQTKDGQCGSPLVSTRDGFIVGIHSASNFTNTNNYFTSVPKNFMELLTNQEAQQWVSGWRLNADSVLWGGHKVFMVKPEEPFQPVKEATQL

Variants of: B1
Test: raw area under fraction-flipped curve 0-4 h after induction (AUC4h, not background-subtracted), DNA-recorder readout of cleavage of the substrate (dimensionless); higher = more cleavage of the substrate by the protease variant
Conditions: temperature: 34 °C; time window: 0-4 h after rhamnose induction
Protocol: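 In vivo DNA recorder in E. coli TOP10(DE3) ΔrhaA at 34 °C. Each TEVp single-site mutant (parent TEVp 0) is paired with a single-site variant of the 7-mer TEVs (canonical ENLYFQ|S). The substrate sits between flexible linkers in a Bxb1-sfGFP-TEVs-SsrA fusion, so cleavage stabilises Bxb1 and speeds flipping of a recombination array, read by NGS. The value is the raw area under the fraction-flipped curve over 0-4 h after rhamnose induction (AUC4h), with ≥20 reads per time point. It is not background-subtracted; inactive controls average about 0.047.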
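Note: Bxb1 expression induced with 0.2% (w/v) L-rhamnose at OD600 near 0.5, cultures sampled hourly, flipped fraction per protease–substrate barcode pair counted by paired-end Illumina sequencing.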

| Variant | area with substrate ENLYFQA | area with substrate ENLYFQC | area with substrate ENLYFQD | area with substrate ENLYFQF | area with substrate ENLYFQG | area with substrate ENLYFQH | area with substrate ENLYFQI | area with substrate ENLYFQK | area with substrate ENLYFQL | area with substrate ENLYFQM | area with substrate ENLYFQN | area with substrate ENLYFQP | area with substrate ENLYFQQ | area with substrate ENLYFQR | area with substrate ENLYFQS | area with substrate ENLYFQT | area with substrate ENLYFQV | area with substrate ENLYFQW | area with substrate ENLYFQY | area with substrate ENLYFQE |
| --- | --- | --- | --- | --- | --- | --- | --- | --- | --- | --- | --- | --- | --- | --- | --- | --- | --- | --- | --- | --- |
| H168I | 0.0598 | 0.0596 | 0.0578 | 0.061 | 0.0742 | 0.0429 | 0.0451 | 0.0822 | 0.0506 | 0.0407 | 0.0529 | 0.0646 | 0.071 | 0.0766 | 0.0606 | 0.0569 | 0.0628 | 0.0509 |  |  |
| H168L | 0.0572 | 0.0557 | 0.0569 | 0.0592 | 0.059 | 0.053 | 0.0543 |  | 0.0432 |  | 0.0544 | 0.0581 |  | 0.107 | 0.0582 | 0.0605 | 0.0592 | 0.0613 | 0.0578 |  |
| H168Q | 0.0672 | 0.0691 | 0.0712 |  | 0.0756 |  | 0.058 | 0.0588 | 0.0519 | 0.0611 | 0.0506 | 0.0543 | 0.0971 |  | 0.0688 | 0.0541 | 0.0629 | 0.0557 | 0.0735 |  |
| T174D | 0.0971 | 0.113 | 0.0716 | 0.0726 | 0.0829 | 0.109 | 0.0657 | 0.0566 | 0.0658 |  | 0.0614 | 0.0683 |  | 0.0637 | 0.0939 |  |  | 0.0707 |  |  |
| N175K | 0.115 | 0.12 | 0.0644 | 0.0705 |  | 0.0812 | 0.0541 | 0.0635 |  | 0.0725 | 0.0671 | 0.0542 | 0.0643 | 0.0611 | 0.103 | 0.0657 | 0.0512 | 0.0762 |  |  |
| T176C | 0.0649 | 0.0563 |  |  |  |  | 0.0606 |  | 0.0595 | 0.0788 | 0.0608 |  |  | 0.0689 | 0.075 |  | 0.0567 |  | 0.0422 |  |
| T176D | 0.0665 | 0.0796 |  | 0.0631 |  | 0.08 | 0.0448 | 0.0675 | 0.0595 |  | 0.0722 |  |  | 0.0581 | 0.0813 | 0.0645 |  | 0.0781 |  | 0.086 |
| T176F | 0.0724 |  |  |  | 0.0752 |  | 0.056 |  | 0.0639 |  |  |  |  | 0.0466 | 0.0686 | 0.0402 |  |  |  |  |
| T176I | 0.0774 | 0.0685 | 0.0668 |  | 0.0805 |  | 0.0723 | 0.0608 | 0.0525 |  | 0.0662 | 0.056 | 0.0552 | 0.0553 | 0.0712 | 0.0539 | 0.0578 | 0.0561 |  |  |
| T176R | 0.0799 |  |  |  |  |  |  | 0.0597 |  | 0.068 |  | 0.0543 | 0.0445 |  | 0.0759 |  |  |  |  |  |
| N177E | 0.11 | 0.117 |  |  | 0.154 | 0.0782 | 0.0476 | 0.056 | 0.0681 | 0.074 | 0.0754 | 0.0533 | 0.0695 | 0.0598 | 0.108 | 0.0625 | 0.0597 | 0.0631 | 0.0743 |  |
| P184C | 0.103 | 0.108 |  | 0.0597 | 0.109 |  | 0.0672 | 0.0701 | 0.0716 | 0.0737 |  |  |  |  | 0.0987 | 0.0682 | 0.0658 | 0.0532 |  |  |
| P184G | 0.0947 | 0.106 | 0.069 |  |  | 0.0778 |  | 0.0533 | 0.0562 | 0.0617 |  |  |  | 0.0714 | 0.0854 |  |  | 0.0575 | 0.0796 |  |
| P184I | 0.0724 | 0.0736 |  | 0.0579 | 0.0833 |  | 0.0512 | 0.0534 | 0.0552 | 0.0688 | 0.063 | 0.0529 | 0.063 | 0.0531 | 0.0766 | 0.0596 | 0.0715 | 0.0624 | 0.0585 |  |
| P184N | 0.0866 | 0.0818 | 0.0663 | 0.0581 | 0.0755 |  | 0.056 | 0.0667 | 0.0592 | 0.0788 | 0.0574 | 0.0609 | 0.0585 | 0.0514 | 0.0753 | 0.0628 | 0.0581 | 0.0519 | 0.0614 |  |
| P184S | 0.105 | 0.102 |  | 0.0737 | 0.0899 |  | 0.0669 | 0.0658 | 0.0568 | 0.0683 | 0.0869 | 0.0631 | 0.0685 | 0.0601 | 0.0835 | 0.0577 | 0.0628 | 0.0718 | 0.0607 | 0.0984 |
| T192E | 0.0902 | 0.141 | 0.0722 | 0.0718 | 0.0745 |  |  |  |  | 0.0908 |  | 0.0617 |  | 0.0758 | 0.103 |  |  |  |  |  |
| T192H | 0.0917 | 0.15 |  |  | 0.0835 | 0.0881 | 0.0559 |  | 0.0767 | 0.105 | 0.08 | 0.0683 |  | 0.0543 | 0.0998 | 0.083 | 0.0714 | 0.0711 | 0.0697 |  |
| T192Q | 0.131 | 0.109 |  | 0.0623 | 0.105 |  |  | 0.0383 | 0.0596 | 0.094 | 0.0752 |  | 0.0822 | 0.0597 | 0.0988 | 0.0658 | 0.0599 |  | 0.0642 |  |
| Q197W | 0.0818 | 0.0998 | 0.0559 | 0.0619 | 0.0789 | 0.0584 | 0.0563 | 0.0641 |  | 0.0891 | 0.0625 |  |  | 0.059 | 0.0866 | 0.0681 | 0.0487 | 0.0764 | 0.0729 | 0.0688 |
| Q198K | 0.0856 | 0.0985 | 0.0385 |  | 0.0973 | 0.0804 | 0.0641 | 0.0607 | 0.0526 | 0.117 | 0.0761 | 0.0561 | 0.0619 | 0.0624 | 0.106 |  | 0.0635 | 0.0675 | 0.117 |  |
| V200H | 0.064 | 0.0687 | 0.0446 | 0.0426 | 0.0787 |  | 0.0607 | 0.0664 | 0.0485 | 0.069 | 0.0812 | 0.0422 |  | 0.0589 | 0.0734 | 0.0603 | 0.0699 | 0.0527 | 0.0651 |  |
| V200P | 0.071 |  | 0.0557 | 0.0624 | 0.0645 |  |  | 0.0459 |  |  | 0.072 |  |  |  | 0.0631 |  |  |  | 0.059 |  |
| V200T | 0.0351 | 0.117 |  |  |  | 0.0741 | 0.0581 |  |  | 0.0796 |  |  |  |  | 0.0938 | 0.0836 |  | 0.0663 |  |  |
| R204H | 0.102 | 0.106 | 0.0496 | 0.0891 |  | 0.0884 | 0.0681 | 0.0646 | 0.0631 | 0.0944 | 0.0751 | 0.0565 | 0.0733 | 0.0594 | 0.0992 | 0.0645 | 0.0502 | 0.0448 | 0.0837 |  |
